Among the data in the RNAGym collection of RNA variant scans (doi:10.7554/elife.90254) are self-cleavage values, retold here.

Read counts are not given, so values of variants with three or more changes are uncertain.

B1: LINE1-mini (parent)
chain: GGCAGAGCUCAACACAGCGUGGCAAAGUGGCUGUGGCUAGACUGCC

In the series the parent is B1. The experiment in a line: self-cleavage, relative activity (ratio to wild type); higher = more cleavage; in vitro, sequencing; the parent is a self-cleaving ribozyme.
For the variant G1U G7A C15U G22U, the self-cleavage worked out at 0.1.

Take G1U U20A G35U C42U: the self-cleavage stood at 0.07.

On to G2A G7A C8U C23U A24U U32G U38C, for which the self-cleavage was 0.55.

G2A G5U C37A U38G A39G: the self-cleavage was determined as 0.02.

Regarding G2A A11U A16U G30A A39U, the self-cleavage amounted to 0.03.

As to G1U G19C U32G C46U, the self-cleavage came to 0.68.

As to G1U U9C G17U, the self-cleavage worked out at 0.02.

For G2A C3G G27C C42G, the self-cleavage is 0.1.

As for G1U U9G C23A C31G, the self-cleavage came out at 0.05.

In the case of G2A A12U G21A G35U, the self-cleavage was found to be 1.52.

With G1U G21A G27U U28C A39G, the self-cleavage was 0.05.

For G2A G7A C8A A11U G35C, the self-cleavage turned out to be 0.04.

For G2A C8G A12G A14C A39G, the self-cleavage was determined as 0.01.

As for G1U U9C G35U C37G, the self-cleavage came out at 0.02.

For the variant G2A C8A C23A G40U, the self-cleavage was found to be 0.07.

Turning to G2A A11U C31G U38C, the self-cleavage was 0.02.

As for G2A C23U C46A, the self-cleavage was found to be 0.82.

For the variant G2A C3U C15A G17U G33C, the self-cleavage was determined as 0.18.

G1U G5U G21C: the self-cleavage came out at 0.04.

With G1U G5U G21U, the self-cleavage was determined as 0.09.

On to G2A A26G U43G, for which the self-cleavage was 0.06.

On to G2A G5U C13G A39C, for which the self-cleavage was 0.22.

Regarding G2A A11G G40U, the self-cleavage amounted to 0.17.

Turning to G2A A6C C10U C13G G36C C46A, the self-cleavage is 0.03.

Turning to G2A C3A G19U C45U, the self-cleavage was 1.22.

Take G1U G21U U32A C46U: the self-cleavage was found to be 0.

Consider G1U U28G C42A G44A, for which the self-cleavage was 0.03.

For the variant G2A G17U G21C, the self-cleavage came out at 0.22.

Regarding G2A A16U U34C C45G, the self-cleavage is 0.39.

With G2A G19A U28C, the self-cleavage is 0.2.

As to G2A G5A A6G G36U A39C A41C C45G, the self-cleavage was found to be 0.11.

Take G2A C3U A12U C13A G17A G22C C31A: the self-cleavage was 0.04.

Take G2A A12G A39C: the self-cleavage turned out to be 0.11.

As to G2A C13U A14G G21U U43G C45G, the self-cleavage was 0.13.

As to G1U G7U C18G, the self-cleavage worked out at 0.04.

As to G2A C10A A14U C15G, the self-cleavage was 0.04.

Consider G2A C10G U28A G36U U43A, for which the self-cleavage is 0.

G2A C18A G33U: the self-cleavage is 0.02.

As for G1U G7U C13A C37U, the self-cleavage is 0.02.

Turning to G2A A4U G17A G21C A39G G44C, the self-cleavage amounted to 0.

For the variant G2A G19A G40C C42A, the self-cleavage turned out to be 0.06.

G2A C15A G22A: the self-cleavage was determined as 0.11.

On to G1U G22C C31U G35C C37A A39C A41G, for which the self-cleavage stood at 0.

G2A A6C C37U: the self-cleavage is 0.

In the case of G2A A11G A14C G29U, the self-cleavage turned out to be 0.01.

As to G1U G7U A11C G33C G40A, the self-cleavage amounted to 0.

Consider G2A A14U G21U A25U G40U A41G, for which the self-cleavage worked out at 0.37.

As to G2A G5C A24U A26U U28A, the self-cleavage came to 0.08.

For the variant G2A G7C C8U C10U G33U G40U, the self-cleavage was 0.08.

As to G2A G7C G29A G30A A39G, the self-cleavage turned out to be 0.13.

For the variant G2A C18G U34C G35A, the self-cleavage is 0.18.

As to G1U G35U C45A, the self-cleavage was 0.13.

In the case of G1U G7U U34C C46U, the self-cleavage came out at 0.02.

With G2A G7C G33U U38A, the self-cleavage came out at 0.14.

As for G1U G7C G36C, the self-cleavage turned out to be 0.06.

Consider G2A C15A A16C G19A G40A C45U, for which the self-cleavage was 0.07.

On to G1U G36U C37U, for which the self-cleavage amounted to 0.

For G2A A11U G19A A39G, the self-cleavage was found to be 0.03.

Regarding G2A G17A A26C, the self-cleavage is 0.57.

As to G1U U9A A14U C15G G21C G27C G35U C37U, the self-cleavage amounted to 0.01.

As for G1U G29A C42G, the self-cleavage stood at 0.01.

Take G2A C15U G21U: the self-cleavage was 0.73.

In the case of G2A C13G A26C G44A, the self-cleavage stood at 0.16.

As for G2A C10U U32A C37G, the self-cleavage was 0.08.

For G1U U9C C23U A26U G35C, the self-cleavage was 0.

As for G2A A24U G27C, the self-cleavage is 0.13.

Take G2A C3U G5C U28A C37U: the self-cleavage amounted to 0.46.

Consider G2A C3G U9C G29U, for which the self-cleavage worked out at 0.1.

Turning to G2A A12C A41C, the self-cleavage came out at 0.04.

Take G2A A24U A25U U32G: the self-cleavage worked out at 0.16.

As to G2A C3U A6U C10G C13U C23A, the self-cleavage was 0.04.

On to G2A G7C G30A, for which the self-cleavage was found to be 0.65.

For the variant G1U U20A G21A G35C G36A G40U C42A, the self-cleavage stood at 0.

In the case of G1U G33C A39G G40U, the self-cleavage came out at 0.02.

G2A G5U C42G: the self-cleavage came out at 0.15.

As to G2A C15G C18A G36C U43C, the self-cleavage worked out at 0.01.

G2A C3G A26G: the self-cleavage is 0.64.

As to G2A C3U A16G G21U U34C G35U G36U, the self-cleavage was found to be 0.34.

Consider G2A C15U A41U, for which the self-cleavage came to 0.07.

As for G1U G33U C42U, the self-cleavage turned out to be 0.12.

For G2A C18U G27C, the self-cleavage worked out at 0.09.

Take G2A C15U A16G: the self-cleavage was found to be 0.55.

Take G2A C37A U43C C45A: the self-cleavage was determined as 0.35.

In the case of G1U G35A C45U, the self-cleavage amounted to 0.1.

As to G2A C23U C42U, the self-cleavage amounted to 0.57.

As to G2A A11U A24U G27A G29A C31A, the self-cleavage came to 0.01.

Regarding G2A C23A A41U C42A, the self-cleavage is 0.19.

G1U U9A G22A A24C C45U: the self-cleavage was found to be 0.01.

As to G2A C8G C13A C18A A39C, the self-cleavage came to 0.15.

For G2A C3U G17A G40U, the self-cleavage was determined as 0.13.

As for G2A G5C C8U C13U U28C U32A A39G, the self-cleavage stood at 0.11.

Take G2A C13A G22A C46U: the self-cleavage is 0.17.

As to G1U U9C G36U, the self-cleavage was 0.03.

On to G1U G29U U34C C46U, for which the self-cleavage was determined as 0.01.

On to G2A C10G A16U, for which the self-cleavage came out at 0.02.

G2A A12C U28G: the self-cleavage turned out to be 0.03.

In the case of G2A A16U A24U G27C, the self-cleavage was found to be 0.04.

Consider G1U G19C U20C G30A G36U, for which the self-cleavage amounted to 0.05.

In the case of G1U G27U U32G C37A C46G, the self-cleavage turned out to be 0.02.

With G2A A6C U38G, the self-cleavage was determined as 0.03.

In the case of G2A G7U C10U A39G, the self-cleavage was determined as 0.01.

In the case of G2A C8G C10A U20C C23U U38A, the self-cleavage was 0.02.

For G1U G7U A11G, the self-cleavage worked out at 0.01.

Regarding G2A A16U C18G G36C, the self-cleavage was 0.01.

For G2A C13A G17U A25C G30C A41C C46U, the self-cleavage was 0.14.

With G2A A4U C10A, the self-cleavage came to 0.09.

As to G2A A11G C18U A25C, the self-cleavage worked out at 0.01.

For G2A A6G C31G G33C C37U U38C, the self-cleavage stood at 0.01.

Take G2A G7A C18G G27A C31A: the self-cleavage is 0.1.

For the variant G1U G17A A26C C31G G33C, the self-cleavage was determined as 0.01.

Take G2A C3A A6G: the self-cleavage was 2.7.

As to G2A A26G G27U U28G, the self-cleavage was found to be 1.32.

Take G2A A4G C23A G40A: the self-cleavage turned out to be 0.13.

With G2A G5C G17C U34G G36U, the self-cleavage came to 0.03.

For G2A A6C G19C C46G, the self-cleavage amounted to 0.17.

Take G2A G7C C23A C31A C42A: the self-cleavage amounted to 0.03.

As for G2A C23G U28G C46A, the self-cleavage is 0.63.

Consider G2A G19C U32A A39C, for which the self-cleavage worked out at 0.04.

Regarding G2A C8A G17A U34G, the self-cleavage was found to be 0.21.

As for G2A G5C A11G G21C, the self-cleavage turned out to be 0.03.

As for G2A A26U A41U U43C, the self-cleavage turned out to be 0.04.

Take G2A C10U A16C G33U: the self-cleavage turned out to be 0.02.

For G1U G33U C37U C45U, the self-cleavage turned out to be 0.03.

For the variant G1U G17A C18G G19C G36U A39U, the self-cleavage stood at 0.07.

In the case of G1U U9C G36C C42G, the self-cleavage stood at 0.01.

For the variant G2A G5C G40U, the self-cleavage was 0.02.

As for G2A G5C G36U G40A U43G, the self-cleavage was 0.04.

Consider G2A C10G A24U, for which the self-cleavage was 0.06.

For the variant G2A C13A C23U A39U C45U, the self-cleavage amounted to 0.58.

In the case of G2A A4G G7A G21U G27U G33C C37G, the self-cleavage amounted to 0.12.

On to G2A C8A A14C, for which the self-cleavage was determined as 0.2.

Turning to G2A C13A A14U C23A G44U, the self-cleavage came to 0.61.

Regarding G2A A12C U32C A41U G44U, the self-cleavage is 0.02.

For the variant G1U G22U U28G G40C, the self-cleavage stood at 0.32.

On to G1U G7U A41G C42U, for which the self-cleavage amounted to 0.03.

For G1U U9A C15U U32A, the self-cleavage came out at 0.02.

For the variant G1U U20C A25U U28G G36U U38G, the self-cleavage turned out to be 0.02.

Consider G2A A6C C23G, for which the self-cleavage was found to be 0.13.

Turning to G2A A25C G40A C42U U43G, the self-cleavage was 0.12.

For the variant G2A C3A C31A C46G, the self-cleavage was determined as 0.44.

Take G1U U34C G40U: the self-cleavage was 0.01.

On to G2A C10G G27A, for which the self-cleavage stood at 0.09.

For the variant G2A C15A U32G G44C, the self-cleavage is 0.16.

G2A G7U C18A U20C G29U C42U: the self-cleavage came to 0.06.

Consider G2A G7C A11C C23A G35U, for which the self-cleavage came out at 0.02.

As to G2A A12G A14G G33A, the self-cleavage was 0.15.

For G1U G19U C45A, the self-cleavage was determined as 0.02.

For G2A C10A G30C U34A, the self-cleavage is 0.07.

On to G2A C15G C23G, for which the self-cleavage was 0.08.

As to G2A A4G A26C, the self-cleavage was 0.5.

As to G2A G7C A11U U32G G35U, the self-cleavage amounted to 0.05.

With G2A A4U A6U, the self-cleavage came to 0.37.

As for G1U G7U C42A, the self-cleavage came to 0.01.

As for G1U U9G C13U C18A A26U, the self-cleavage worked out at 0.01.

For the variant G2A A24C G30A G40C, the self-cleavage came out at 0.02.

G2A A4G C8A U20G: the self-cleavage worked out at 0.04.

Take G2A C8U C10A A12G C37U G40U: the self-cleavage was determined as 0.02.

For the variant G2A G7A U38A, the self-cleavage turned out to be 0.16.

On to G2A G7A A14C G21U G35U C46U, for which the self-cleavage was 0.07.

G2A A11U A14U C15A U34A C42U C46U: the self-cleavage was 0.01.

In the case of G2A A4U G5C, the self-cleavage turned out to be 0.14.

For the variant G1U U20A A24C U43A, the self-cleavage was determined as 0.02.

As for G1U G44U C45U, the self-cleavage is 0.03.

With G2A A4U G19U G29C U34C, the self-cleavage worked out at 0.15.

G2A C8G G29U U34G: the self-cleavage amounted to 0.03.

As to G2A C8A U32A C37A, the self-cleavage is 0.24.

Turning to G1U G29U C42A, the self-cleavage was 0.01.
